The whole screen tested about 48,000 compounds, of which about 450 (0.94%) were called active. Another 19% or so got no clear call; they are omitted. Calls follow the shape of the dose curve; as a rule, active = well fitted inhibition curve with a large enough effect; inconclusive = small, poorly fitted or top-dose-only effect; inactive = no such curve, though single readings can be large or run the other way. Some of the results follow.
Assay: Primary qHTS for Identification of Small Molecule Inhibitors of Huntingtin Promoter Activity; also: nearly all actives have a fitted effect of over 50% in size
Settings: HEK293 HTT promoter firefly luciferase reporter (activity 0% = vehicle and -100% = no light), 24 h; activity change, negative = inhibition: at the top concentration
Text: Assay Provider: Russell L. Margolis M.D.
Department Neurology, Johns Hopkins University School of Medicine, Baltimore, MD
Huntington's Disease (HD) is a neurodegenerative disorder caused by a CAG repeat expansion in exon 1 of huntingtin (HTT). While there are currently no disease-modifying treatments for HD, recent efforts have focused on development of nucleotide-based therapeutics to lower HTT expression. As an alternative to siRNA or oligonucleotide methods, we hypothesized that suppression of HTT expression might be accomplished by small molecules that either (1) directly decrease HTT expression by suppressing HTT promoter activity or (2) indirectly decrease HTT expression by increasing the promoter activity of HTT-AS, the gene antisense to HTT that appears to inhibit expression of HTT.
We developed and employed a high throughput screen for modifiers of HTT and HTT-AS promoter activity using luminescent reporter HEK293 cells; of the 52,041 compounds tested, we identified 898 replicable hits. We used a rigorous stepwise approach to assess compound toxicity and the capacity of the compounds to specifically lower huntingtin protein in 5 different cell lines, including HEK293 cells, HD lymphoblastoid cells, mouse primary neurons, HD iPSCs differentiated into cortical-like neurons, and HD hESCs. We found no compounds which were able to lower huntingtin without lowering cell viability in all assays, though the potential efficacy of a few compounds at non-toxic doses could not be excluded.
SEQUENCE No. (1, 2, 3, etc.); […] (e.g., Cells, Incubation, Reagent, etc.); VALUE and DESCRIPTION.
1; Reagent; 4 uL; 2,500 Hek293 luciferase reporter cells per wells
3; Compound; 23 nL; Control inhibitor / compound library
5; Reagent; 2.5 uL; Firefly Luc reagent; Dual-Glo Luciferase Reporter Assay System (Promega)
6; Time; 10 min; room temperature incubation
7; Detection; Luminescence; FLuc
NOTES (numbers refer to sequence above)
1; High-throughput screening, measuring luminescence from a Hek293 luciferase reporter, was performed in 1,536 well white-walled tissue-culture treated plates. 2,500 cells were plated in 4 µL of Opti-MEM per well using a Multidrop Combi Reagent Dispenser (ThermoFisher).
2; Assay plates were cultured for 24 hours.
3; Control inhibitor (PTC124; final concentration of 50 uM) and compound library (at final concentrations of 460 nM - 57.5 uM) were added to the assay plate using the Kalypsis Pintool Robotic System equipped with 1536 pinheads.
4; Cells were then incubated for 24 hours at 37 degrees C prior to luminescence measurements.
5; In all cases, luminescence was measured using the Dual-Glo Luciferase Reporter Assay System (Promega) following the manufacturer's instructions.
6; Room temperature incubation.
7; Luminescence signal was obtained using the PerkinElmer ViewLux plate reader. Results were normalized to vehicle control (0% activity) and zero RLU (-100% activity).

Row | SMILES | activity change, negative = inhibition
1 | CCOc1ccc(CN(CCc2ccc3c(c2)OCO3)Cc2cccc(Br)c2)cc1 | inactive: 0.0355%
2 | O=C(COc1ccccc1Cl)N1CCN(CCc2ccccn2)CC1 | inactive: -8.84%
3 | Nc1ccc([N+](=O)[O-])cc1 | inactive: -18.2% [at 116 µM]
4 | Cc1cccc(OC(C)C(=O)NCC2(N(C)C)CCCCC2)c1C (configuration not stated) | inactive: -1.82%
5 | Cc1nnc(NC(=O)c2cccn(Cc3ccccc3)c2=O)s1 | inactive: 11.4%
6 | Cc1nnc2n1-c1sc(CCC(=O)N3CCOCC3)cc1C(c1ccccc1Cl)=NC2 | inactive: 1.78%
7 | CC(Cc1ccccc1)N(C)Cc1ccco1 (configuration not stated) | inactive: 11.3%
8 | CN(C)CCc1c[nH]c2ccccc12 | inactive: -1.35% [at 222 µM]
9 | CC[N+]1(C)CCCC(OC(=O)C(O)(c2ccccc2)c2ccccc2)C1 (configuration not stated) | inactive: -1.99%
10 | CCCc1nc(SC)ncc1C(=O)Nc1ccc(Cl)cc1C(=O)c1ccccc1 | inactive: -10.8%
11 | CCOc1ccc(CN(CCc2ccc3c(c2)OCO3)Cc2ccc(CC)cc2)cc1 | inactive: -13.6%
12 | COP(=S)(OC)Oc1ccc(S(=O)(=O)N(C)C)cc1 | inactive: 3.54%
13 | CN1C(=O)CN=C(c2ccccc2)c2cc(Cl)ccc21 | inactive: 10.7%
14 | C[C@]12CC[C@H](O)CC1=CC[C@@H]1[C@@H]2CC[C@]2(C)C(=O)CC[C@@H]12 | inactive: -4.28%
15 | CC(Cc1ccccc1)NCc1ccccc1Cl (configuration not stated) | inactive: 2.49%
16 | COc1ccccc1CN1CCN(C(=O)COc2cccc(C)c2)CC1 | inactive: -0.562%
17 | COc1ccc(NC(=O)CN2C(=O)CN=C(c3ccccc3)c3ccccc32)c(OC)c1 | inactive: -4.71%
18 | CC[C@@H](CO)NC(=O)[C@@H]1C=C2c3cccc4c3c(cn4C)C[C@H]2N(C)C1 | inactive: 12.4%
19 | CN1C[C@H](CNC(=O)OCc2ccccc2)C[C@@H]2c3cccc4c3c(cn4C)C[C@H]21 | inactive: -20.9%
20 | O=[N+]([O-])c1ncc[nH]1 | inactive: -6.01%
21 | CCCCCCCCCC(=O)O[C@H]1CC[C@H]2[C@@H]3CCC4=CC(=O)CC[C@@H]4[C@H]3CC[C@]12C | inactive: 10.3%
22 | CCN[C@H](C)Cc1cccc(C(F)(F)F)c1 | inactive: -4.38% [at 116 µM]
23 | COc1ccc(C2CC(=O)Oc3c2c(=O)oc2ccccc32)c(OC)c1OC (configuration not stated) | inactive: 1.99%
24 | COc1ccc(OC)c(CCNCc2c(C(=O)O)c(C)n(Cc3ccc(F)cc3Cl)c2C)c1 | inactive: -10.9%
25 | CN1CCC(N(Cc2ccccc2)c2ccccc2)CC1 | inactive: -15.5%
26 | CN[C@@H]1Cc2cccc3[nH]c(=O)n(c23)C1 | inactive: -2.69%

Row | SMILES | activity change, negative = inhibition
27 | COc1ccc(NC(=O)CCc2nc(C3=CCN(Cc4cccc(C)c4)CC3)no2)c(OC)c1 | inactive: -11.4%
28 | Cc1cc(OCC(=O)N2CCN(CCc3ccncc3)CC2)cc(C)c1Cl | inactive: -27.1%
29 | O=C1NCN(c2ccccc2)C12CCN(CCCOc1ccc(F)cc1)CC2 | inactive: 1.3%
30 | CC(C)c1cccc(C(C)C)c1O | inactive
31 | Cc1nc(-c2ccc(-c3ccc(C(=O)N4CCc5cc6c(cc54)C4(CCN(C)CC4)CO6)cc3)c(C)c2)no1 | inactive: -12%
32 | Cc1ccc(CNC(=O)CCCn2c(=O)c3sccc3n(CC(=O)Nc3c(C)cccc3C)c2=O)cc1 | inactive: -16.3%
33 | CC#C[C@]1(O)CC[C@H]2[C@@H]3C[C@H](C)C4=CC(=O)CC[C@]4(C)[C@H]3CC[C@@]21C | inactive: -14.8%
34 | Clc1ccc(COC(Cn2ccnc2)c2ccc(Cl)cc2Cl)cc1 (configuration not stated) | inactive
35 | COC1(CS(=O)c2ccccc2)CCN(CCc2c[nH]c3ccc(F)cc23)CC1 (configuration not stated) | inactive: -3.86%
36 | O=C(COc1ccccc1[N+](=O)[O-])N1CCN(CCc2ccccn2)CC1 | inactive: -19.4% [at 11.5 µM]
37 | Cc1ncsc1CCCl | inactive: 10.9%
38 | O=C(Nc1ccccc1C(F)(F)F)c1cccn(Cc2ccccc2)c1=O | inactive: -13.9%
39 | CNC(=O)Oc1cccc2ccccc12 | inactive: -3.65%
40 | CCOC(=O)c1cncn1[C@H](C)c1ccccc1 | inactive: -11.6%
41 | CCOC(=O)c1cncn1C(C)c1ccccc1 (configuration not stated) | inactive: 9.48%
42 | C[C@]12Cc3cn[nH]c3C[C@@H]1CC[C@@H]1[C@@H]2CC[C@@]2(C)[C@H]1CC[C@]2(C)O | inactive: 1.65%
43 | CC1=C(C(=O)O)N2C(=O)[C@@H](N)[C@H]2SC1 | inactive: 0.851% [at 25.2 µM]
44 | CCN1CCN(C(=O)Cc2ccc(Nc3ncc(F)c(Nc4ccc(C(=O)Nc5ccccc5Cl)cc4)n3)cc2)CC1 | inactive: 3.67%
45 | CCOC(=O)c1ccc(NC(=O)CSc2nc3c(cc2C#N)N2CCC3CC2)cc1 | inactive: -27%
46 | Cc1cccc(Cn2cccc(C(=O)Nc3nc4ccccc4s3)c2=O)c1 | inactive: -17.4%
47 | NCC1(CC(=O)O)CCCCC1 | inactive
48 | Cc1cccc(-n2c(CC3C(=O)Nc4ccc(C)cc43)nc3ccccc3c2=O)c1 (configuration not stated) | inactive: -8.42%
49 | COc1cccc(-n2c(/C=C/c3cccc(C)c3)nc3ccccc3c2=O)c1 | inactive: -8.8% [at 11.5 µM]
50 | CCC(=O)C(CC(C)N(C)C)(c1ccccc1)c1ccccc1 (configuration not stated) | inactive: -5.86% [at 116 µM]
51 | Cc1ccc(-n2c(/C=C/c3cccc4ccccc34)nc3ccccc3c2=O)cc1 | inactive: -16%
52 | O=[N+]([O-])O[C@H]1CO[C@H]2[C@@H]1OC[C@H]2O[N+](=O)[O-] | inactive: -8.13%
